{"source": "paper PMC4336329", "about": "(PLoS ONE, 2015)", "note": "In all, about 310,000 compounds went through this assay and about 14,000 (4.5%) showed an effect of 50% or more. The effect is printed as a negative number. The list shows a part of the results."}
{"target": "human ether-à-go-go-related gene (hERG) potassium channel (human, UniProt Q12809)", "sequence (Q12809 whole entry, looked up)": "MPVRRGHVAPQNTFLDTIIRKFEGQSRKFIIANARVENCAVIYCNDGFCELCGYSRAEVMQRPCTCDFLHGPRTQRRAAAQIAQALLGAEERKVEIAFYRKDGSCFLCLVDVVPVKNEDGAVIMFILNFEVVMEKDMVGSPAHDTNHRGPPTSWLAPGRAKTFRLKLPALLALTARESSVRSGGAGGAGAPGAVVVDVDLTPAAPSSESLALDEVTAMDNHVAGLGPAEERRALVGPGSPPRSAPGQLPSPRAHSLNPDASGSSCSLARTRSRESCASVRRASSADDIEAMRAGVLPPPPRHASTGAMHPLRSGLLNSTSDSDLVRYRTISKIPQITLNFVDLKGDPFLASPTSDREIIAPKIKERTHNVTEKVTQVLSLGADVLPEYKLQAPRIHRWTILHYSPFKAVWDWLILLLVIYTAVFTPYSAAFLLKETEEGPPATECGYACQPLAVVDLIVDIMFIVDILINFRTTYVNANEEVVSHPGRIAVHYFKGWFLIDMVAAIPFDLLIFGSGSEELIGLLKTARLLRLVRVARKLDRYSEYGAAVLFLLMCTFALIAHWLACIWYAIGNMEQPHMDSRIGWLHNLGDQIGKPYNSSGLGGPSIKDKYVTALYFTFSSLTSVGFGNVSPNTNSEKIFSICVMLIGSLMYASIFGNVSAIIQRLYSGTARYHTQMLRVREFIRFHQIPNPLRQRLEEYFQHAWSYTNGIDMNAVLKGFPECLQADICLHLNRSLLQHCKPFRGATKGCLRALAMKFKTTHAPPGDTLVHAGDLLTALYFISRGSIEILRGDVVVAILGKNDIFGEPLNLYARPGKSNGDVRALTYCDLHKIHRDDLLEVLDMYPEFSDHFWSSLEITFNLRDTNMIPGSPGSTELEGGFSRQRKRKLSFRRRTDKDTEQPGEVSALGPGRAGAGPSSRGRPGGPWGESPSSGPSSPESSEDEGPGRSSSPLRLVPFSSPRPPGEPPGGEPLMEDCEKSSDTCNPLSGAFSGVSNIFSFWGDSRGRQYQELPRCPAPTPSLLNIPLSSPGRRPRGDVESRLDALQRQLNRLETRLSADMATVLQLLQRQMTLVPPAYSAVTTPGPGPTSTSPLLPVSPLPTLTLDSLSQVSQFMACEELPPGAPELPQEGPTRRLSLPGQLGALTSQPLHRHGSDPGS", "experiment": "primary screen, population patch clamp on CHO cells stably expressing hERG", "units": {"hERG current change (%, negative = inhibition) at 10uM": "%"}}
{"compound": "Cc1ccc(S(=O)(=O)NCCC(=O)NCC(c2cccs2)N2CCOCC2)cc1", "note": "(centres unmarked);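 further: peak tail current of the secondary pulse compared with the same well before compound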", "hERG current change (%, negative = inhibition) at 10uM": -4.62}
{"compound": "CC(=O)Cc1nsc(NC(=O)c2ccc(-c3ccc(Cl)c(C(F)(F)F)c3)o2)n1", "hERG current change (%, negative = inhibition) at 10uM": 15.3}
{"compound": "CSc1nnc(C)c(=O)n1COC(=O)/C=C/c1ccccc1", "hERG current change (%, negative = inhibition) at 10uM": -10.5}
{"compound": "CN(Cc1ccon1)C(=O)CC1C(=O)NCCN1Cc1ccc(F)c(F)c1", "note": "(centres unmarked)", "hERG current change (%, negative = inhibition) at 10uM": -4.23}
{"compound": "CC(=O)Nc1ccc2c(c1)CCCN2C(=O)c1ccccc1", "hERG current change (%, negative = inhibition) at 10uM": 11.1}
{"compound": "O=C(Nc1ccc([N+](=O)[O-])cc1)C1(c2ccccc2)CCOCC1", "hERG current change (%, negative = inhibition) at 10uM": -69.1}
{"compound": "O=C(NC(=S)N(Cc1ccccc1)Cc1ccccc1)C1CCCCC1", "hERG current change (%, negative = inhibition) at 10uM": 12.6}
{"compound": "FC(F)(F)c1cccc(N2CCc3cn[nH]c32)c1", "hERG current change (%, negative = inhibition) at 10uM": -11.7}
{"compound": "Cc1ccc(S(=O)(=O)N2CCN(CC(=O)N/N=C/c3ccc(C)o3)CC2)cc1", "hERG current change (%, negative = inhibition) at 10uM": -38.9}
{"compound": "CCCC[n+]1ccn(-c2nc3ccccc3nc2[N-]S(=O)(=O)c2ccc(Cl)cc2)c1", "hERG current change (%, negative = inhibition) at 10uM": -19.8}
{"compound": "Cc1cc(NC(=O)COC(=O)c2cccc(S(=O)(=O)N3CCOCC3)c2)no1", "hERG current change (%, negative = inhibition) at 10uM": 11.4}
{"compound": "COc1ccc(NC(=O)CN2CCN(S(=O)(=O)c3ccc(Br)cc3)CC2)c(OC)c1", "hERG current change (%, negative = inhibition) at 10uM": 19.8}
{"compound": "CC(C)CC(=O)Nc1ccc2c(c1)nc(CCN1CCCCC1)n2C", "hERG current change (%, negative = inhibition) at 10uM": -9.9}
{"compound": "CCN1CCN(C(c2cccs2)C(C)NC(=O)c2ccccc2)CC1", "note": "(centres unmarked)", "hERG current change (%, negative = inhibition) at 10uM": -1.79}
{"compound": "COc1ccc(CN2CCC(C(=O)N(C)CCc3ccc(OC)c(OC)c3)CC2)c(OC)c1.O=C(O)C(=O)O", "hERG current change (%, negative = inhibition) at 10uM": -44.9}
{"compound": "CC1=C(C(=O)OC(C)C)C(C2CC=CCC2)NC(=O)N1", "note": "(centres unmarked)", "hERG current change (%, negative = inhibition) at 10uM": 4.88}
{"compound": "Cc1ccc(NC(=O)CSc2nnc(-c3ccc(S(=O)(=O)N4CCCC4)cc3)o2)cc1C", "hERG current change (%, negative = inhibition) at 10uM": -6.49}
{"compound": "Cc1nn(C2CCOC(C)(C)C2)c2c1C(c1ccc(OC(C)C)cc1)SCC(=O)N2", "note": "(centres unmarked)", "hERG current change (%, negative = inhibition) at 10uM": -15.5}
{"compound": "CC1=C(C(=O)N(C)C)C(c2ccccc2OC(F)F)NC(=O)N1", "note": "(centres unmarked)", "hERG current change (%, negative = inhibition) at 10uM": 3.49}
{"compound": "CC(C)NC(=O)c1ccccc1NC(=O)CS(=O)(=O)Cc1ccccc1", "hERG current change (%, negative = inhibition) at 10uM": -4.72}
{"compound": "OCCC1CN(CC#Cc2ccccc2)CCN1C1CCCC1", "note": "(centres unmarked)", "hERG current change (%, negative = inhibition) at 10uM": -46.2}
{"compound": "Cc1ccc(N2C(=O)C3C4C=CC(CC4)C3C2=O)cc1Br", "note": "(centres unmarked)", "hERG current change (%, negative = inhibition) at 10uM": 15.4}
{"compound": "CCC(C(=O)Nc1cc(C)nn1-c1nc(C)cc(C)n1)c1ccccc1", "note": "(centres unmarked)", "hERG current change (%, negative = inhibition) at 10uM": -67.7}
{"compound": "COc1ccccc1NC(=S)N(c1ccccc1)C(C)C", "hERG current change (%, negative = inhibition) at 10uM": 6.18}
{"compound": "COc1ccc(CCNC(=O)CCNC(=O)c2ccccc2Cl)cc1", "hERG current change (%, negative = inhibition) at 10uM": 21.9}
{"compound": "COc1ccc(C2=NN(C(=O)CCC(=O)O)C(c3cccs3)C2)cc1OC", "note": "(centres unmarked)", "hERG current change (%, negative = inhibition) at 10uM": 17.1}
{"compound": "OC(COc1cccc2ccccc12)CN1CCCC1", "note": "(centres unmarked)", "hERG current change (%, negative = inhibition) at 10uM": -29.4}
{"compound": "CCOC(=O)C(CC)Sc1nnc2n1C(C)(C)Cc1ccccc1-2", "note": "(centres unmarked)", "hERG current change (%, negative = inhibition) at 10uM": -10.8}
{"compound": "O=C(CN1CCCCC1)N1CCN(c2ccccc2)CC1", "hERG current change (%, negative = inhibition) at 10uM": -6.04}
{"compound": "COc1ccc(N/C(C)=C/C(=O)c2ccccc2)cc1", "hERG current change (%, negative = inhibition) at 10uM": -2.07}
{"compound": "O=C1/C(=C/c2ccco2)CCc2ccccc21", "hERG current change (%, negative = inhibition) at 10uM": -5.9}
{"compound": "COc1ccc2oc(C(=O)OCC(=O)N(C)c3c(N)n(Cc4ccccc4)c(=O)[nH]c3=O)c(C)c2c1", "hERG current change (%, negative = inhibition) at 10uM": 4.41}
{"compound": "COCCN(C(=O)c1ccc(N2CCCC2=O)cc1)c1c(N)n(Cc2ccccc2)c(=O)[nH]c1=O", "hERG current change (%, negative = inhibition) at 10uM": 3.26}
{"compound": "CCCCOCCCNC(=O)N[C@H](C(=O)O)C(C)CC", "note": "(some centres unmarked)", "hERG current change (%, negative = inhibition) at 10uM": -5.23}
{"compound": "CCCN(C(=O)CSc1nnnn1C)c1c(N)n(Cc2ccccc2)c(=O)[nH]c1=O", "hERG current change (%, negative = inhibition) at 10uM": 18.4}
{"compound": "CC1(C)CC2(CCO1)N1CC3(C)CN2CC(C)(C1)C3=O", "note": "(centres unmarked)", "hERG current change (%, negative = inhibition) at 10uM": -1.6}
{"compound": "Nn1c(SCc2ccccc2)nnc1-c1ccccn1", "hERG current change (%, negative = inhibition) at 10uM": 5.06}
{"compound": "C/C(=N\\N1CCCCC1)c1ccccc1O", "hERG current change (%, negative = inhibition) at 10uM": 18.6}
{"compound": "CC(/C=N/Nc1nc2ccccc2[nH]1)=C\\c1ccccc1", "hERG current change (%, negative = inhibition) at 10uM": -41.8}
{"compound": "Cc1cccc(-c2nsc(SCC(=O)NCC3CCCO3)n2)c1", "note": "(centres unmarked)", "hERG current change (%, negative = inhibition) at 10uM": 2.13}
{"compound": "COc1ccc(NC(=O)Cc2ccccc2)cn1", "hERG current change (%, negative = inhibition) at 10uM": -19.5}
{"compound": "CC1=C(C(N)=O)C(c2cccnc2)n2nc(-c3cccc(Cl)c3)nc2N1", "note": "(centres unmarked)", "hERG current change (%, negative = inhibition) at 10uM": 5.79}
{"compound": "C=CCc1ccccc1OCC(O)CN(C(C)C)C(C)C.Cl", "note": "(centres unmarked)", "hERG current change (%, negative = inhibition) at 10uM": -59.2}
{"compound": "O=C(CC(Nc1ccccc1)c1ccccc1)C1CC1", "note": "(centres unmarked)", "hERG current change (%, negative = inhibition) at 10uM": 1.87}
